No constants are given. Whether binding was seen depends on the method and setting. Binding seen in cells or lysates may run through a third protein. Some results given as binding are weak or reduced against the parent protein; the word gives no strength. Tags and fused reporters may be left off the sequences shown.
How the values were obtained:
[1] = molecular target: T1, Myc-PCDH19-EC-FLAG (extracellular fragment of PCDH19) (human) (UniProt Q8TAB3); assay: co-IP; HEK293T transfected with Myc-PCDH19-FLAG (isoforms, variants or fragments) and β-catenin-V5, with or without CDH2-HA; anti-FLAG agarose beads 1 hour at 4 °C; Wash Buffer; western blot with anti-Myc, anti-HA and anti-V5
T1 sequence: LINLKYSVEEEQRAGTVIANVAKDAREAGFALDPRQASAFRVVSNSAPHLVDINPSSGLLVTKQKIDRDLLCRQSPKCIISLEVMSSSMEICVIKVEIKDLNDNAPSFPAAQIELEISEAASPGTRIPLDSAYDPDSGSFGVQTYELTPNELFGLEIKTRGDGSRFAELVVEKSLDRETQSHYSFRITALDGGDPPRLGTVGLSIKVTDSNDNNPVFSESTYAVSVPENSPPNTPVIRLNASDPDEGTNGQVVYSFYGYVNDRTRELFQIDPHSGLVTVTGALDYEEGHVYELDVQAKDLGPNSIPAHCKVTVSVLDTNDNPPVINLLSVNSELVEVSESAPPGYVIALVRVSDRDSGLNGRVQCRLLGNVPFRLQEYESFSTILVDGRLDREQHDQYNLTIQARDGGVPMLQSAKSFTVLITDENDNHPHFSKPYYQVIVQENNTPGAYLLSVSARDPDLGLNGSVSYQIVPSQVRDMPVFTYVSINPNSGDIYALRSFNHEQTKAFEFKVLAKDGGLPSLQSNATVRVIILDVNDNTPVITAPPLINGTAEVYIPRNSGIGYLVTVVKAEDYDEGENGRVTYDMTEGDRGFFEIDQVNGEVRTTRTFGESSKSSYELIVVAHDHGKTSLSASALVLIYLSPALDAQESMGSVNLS

Chains of the proteins cited; added tags and fusions are not shown.
UniProt P35222: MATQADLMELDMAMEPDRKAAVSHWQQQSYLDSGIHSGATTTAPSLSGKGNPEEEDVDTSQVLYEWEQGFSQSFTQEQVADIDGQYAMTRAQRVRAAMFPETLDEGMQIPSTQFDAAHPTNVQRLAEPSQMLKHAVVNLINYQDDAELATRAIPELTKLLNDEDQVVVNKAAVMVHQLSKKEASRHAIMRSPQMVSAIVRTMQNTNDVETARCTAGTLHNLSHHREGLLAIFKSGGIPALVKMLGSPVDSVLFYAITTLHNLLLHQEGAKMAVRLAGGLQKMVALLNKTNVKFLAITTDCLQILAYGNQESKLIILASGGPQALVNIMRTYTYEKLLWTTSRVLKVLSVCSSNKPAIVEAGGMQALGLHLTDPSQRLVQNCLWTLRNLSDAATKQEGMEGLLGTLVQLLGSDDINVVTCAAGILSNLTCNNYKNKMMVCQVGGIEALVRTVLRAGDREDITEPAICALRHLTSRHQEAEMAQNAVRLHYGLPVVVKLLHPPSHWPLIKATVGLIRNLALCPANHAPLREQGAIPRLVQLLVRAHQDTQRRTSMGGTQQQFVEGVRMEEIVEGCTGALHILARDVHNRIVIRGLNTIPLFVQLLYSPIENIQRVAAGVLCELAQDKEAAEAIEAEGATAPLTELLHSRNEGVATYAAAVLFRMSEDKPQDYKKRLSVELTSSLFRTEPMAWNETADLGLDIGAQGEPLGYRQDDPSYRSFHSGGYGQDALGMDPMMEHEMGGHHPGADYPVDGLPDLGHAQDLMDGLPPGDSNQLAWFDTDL

[2] = molecular target: T2, Myc-PCDH19-FLAG full length (FL), isoform with Exon 2 (+Ex2) (human) (UniProt Q8TAB3); assay: as above
T2 sequence: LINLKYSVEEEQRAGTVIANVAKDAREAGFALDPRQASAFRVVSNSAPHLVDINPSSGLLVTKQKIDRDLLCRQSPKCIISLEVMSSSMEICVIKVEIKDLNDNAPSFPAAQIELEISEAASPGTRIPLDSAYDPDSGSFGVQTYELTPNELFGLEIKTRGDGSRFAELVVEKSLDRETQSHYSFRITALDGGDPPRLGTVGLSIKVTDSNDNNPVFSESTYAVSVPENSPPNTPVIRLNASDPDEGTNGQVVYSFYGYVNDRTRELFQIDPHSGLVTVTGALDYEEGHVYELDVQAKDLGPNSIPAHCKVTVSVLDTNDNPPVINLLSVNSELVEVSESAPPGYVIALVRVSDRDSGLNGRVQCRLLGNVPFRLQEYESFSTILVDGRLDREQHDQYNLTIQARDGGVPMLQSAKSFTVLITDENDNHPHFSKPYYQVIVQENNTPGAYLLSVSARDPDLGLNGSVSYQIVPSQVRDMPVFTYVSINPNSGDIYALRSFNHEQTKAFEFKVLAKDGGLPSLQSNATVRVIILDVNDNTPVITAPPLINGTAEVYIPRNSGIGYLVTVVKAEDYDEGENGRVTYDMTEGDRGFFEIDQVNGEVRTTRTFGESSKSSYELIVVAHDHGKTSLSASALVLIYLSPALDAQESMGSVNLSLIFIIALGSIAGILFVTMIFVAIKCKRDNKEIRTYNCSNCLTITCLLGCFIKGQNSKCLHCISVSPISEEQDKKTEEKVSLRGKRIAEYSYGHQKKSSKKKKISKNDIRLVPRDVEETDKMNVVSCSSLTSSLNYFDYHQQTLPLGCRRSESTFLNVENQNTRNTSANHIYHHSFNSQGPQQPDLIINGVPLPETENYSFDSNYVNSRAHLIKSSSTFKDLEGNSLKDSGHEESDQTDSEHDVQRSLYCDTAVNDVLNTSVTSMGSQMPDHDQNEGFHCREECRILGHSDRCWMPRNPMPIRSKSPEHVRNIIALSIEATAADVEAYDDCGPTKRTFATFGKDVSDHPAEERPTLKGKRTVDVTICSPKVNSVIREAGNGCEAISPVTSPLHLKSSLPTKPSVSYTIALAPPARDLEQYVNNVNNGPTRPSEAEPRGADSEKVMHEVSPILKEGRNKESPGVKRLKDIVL

binding [1]: binds
binding [2]: binds
Substance: β-catenin-V5 (from UniProt P35222 1-781)

Source: article PMC11408250
